# Laboratory results taken from the supplement of paper PMC8728848.
# The other results are listed elsewhere or left out.
# Tests used:
# Assay in all cases: glycan array binding signal (z-score within array); higher = stronger binding
# Conditions in all cases: glycan notation: IUPAC condensed, linker removed
# [1] = biological target: Neu5Ac(a2-3)Gal(b1-4)GlcNAc(b1-3)Gal(b1-4)GlcNAc(b1-2)Man(a1-3)[Neu5Ac(a2-3)Gal(b1-4)GlcNAc(b1-3)Gal(b1-4)GlcNAc(b1-2)Man(a1-6)]Man(b1-4)GlcNAc(b1-4)GlcNAc
# Method in brief: (§1)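 Arrays were curated from the Consortium for Functional Glycomics database, 3228 in total, and kept only where the protein sequence was available. Binding is expressed as a within-array Z-score. This score was averaged across arrays of the same protein sequence at different concentrations or buffers and across linkers, and negative values can be read as non-binding.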
# [2] = biological target: Neu5Ac(a2-3)Gal(b1-4)GlcNAc(b1-3)Gal(b1-4)GlcNAc(b1-3)Gal(b1-4)GlcNAc
# Method in brief: as §1
# [3] = biological target: Neu5Ac(a2-3)Gal(b1-4)GlcNAc(b1-3)Gal(b1-4)GlcNAc(b1-3)Gal(b1-4)GlcNAc(b1-2)Man(a1-3)[Neu5Ac(a2-3)Gal(b1-4)GlcNAc(b1-3)Gal(b1-4)GlcNAc(b1-3)Gal(b1-4)GlcNAc(b1-2)Man(a1-6)]GalNAc
# Method in brief: as §1
# [4] = biological target: Neu5Ac(a2-3)Gal(b1-4)GlcNAc(b1-3)Gal(b1-4)GlcNAc(b1-3)GalNAc
# Method in brief: as §1
# [5] = biological target: Neu5Ac(a2-3)Gal(b1-4)GlcNAc(b1-3)Gal(b1-4)GlcNAc(b1-3)[Neu5Ac(a2-3)Gal(b1-4)GlcNAc(b1-3)Gal(b1-4)GlcNAc(b1-6)]GalNAc
# Method in brief: as §1
# [6] = biological target: Neu5Ac(a2-3)Gal(b1-4)GlcNAc(b1-3)Gal(b1-4)GlcNAc(b1-6)[Gal(b1-3)]GalNAc
# Method in brief: as §1
# [7] = biological target: Neu5Ac(a2-3)Gal(b1-4)GlcNAc(b1-3)Gal(b1-4)[Fuc(a1-3)]GlcNAc
# Method in brief: as §1
# [8] = biological target: Neu5Ac(a2-3)Gal(b1-4)GlcNAc(b1-3)GalNAc
# Method in brief: as §1
# [9] = biological target: Neu5Ac(a2-3)Gal(b1-4)GlcNAc(b1-3)[Neu5Ac(a2-3)Gal(b1-4)GlcNAc(b1-6)]GalNAc
# Method in brief: as §1
# [10] = biological target: Neu5Ac(a2-3)Gal(b1-4)GlcNAc(b1-6)GalNAc
# Method in brief: as §1
# [11] = biological target: Neu5Ac(a2-3)Gal(b1-4)GlcNAc(b1-6)[Gal(b1-3)]GalNAc
# Method in brief: as §1
# [12] = biological target: Neu5Ac(a2-3)Gal(b1-4)GlcNAc(b1-6)[Neu5Ac(a2-3)Gal(b1-3)]GalNAc
# Method in brief: as §1
# [13] = biological target: Neu5Ac(a2-3)Gal(b1-4)GlcNAc6S
# Method in brief: as §1
# [14] = biological target: Neu5Ac(a2-3)Gal(b1-4)[Fuc(a1-3)]GlcNAc
# Method in brief: as §1
# [15] = biological target: Neu5Ac(a2-3)Gal(b1-4)[Fuc(a1-3)]GlcNAc(b1-2)Man
# Method in brief: as §1
# [16] = biological target: Neu5Ac(a2-3)Gal(b1-4)[Fuc(a1-3)]GlcNAc(b1-3)Gal
# Method in brief: as §1
# [17] = biological target: Neu5Ac(a2-3)Gal(b1-4)[Fuc(a1-3)]GlcNAc(b1-3)Gal(b1-4)GlcNAc
# Method in brief: as §1
# [18] = biological target: Neu5Ac(a2-3)Gal(b1-4)[Fuc(a1-3)]GlcNAc(b1-3)Gal(b1-4)[Fuc(a1-3)]GlcNAc(b1-3)Gal(b1-4)[Fuc(a1-3)]GlcNAc
# Method in brief: as §1
# [19] = biological target: Neu5Ac(a2-3)Gal(b1-4)[Fuc(a1-3)]GlcNAc(b1-3)GalNAc
# Method in brief: as §1
# [20] = biological target: Neu5Ac(a2-3)Gal(b1-4)[Fuc(a1-3)]GlcNAc(b1-6)[Gal(b1-3)]GalNAc
# Method in brief: as §1
# [21] = biological target: Neu5Ac(a2-3)Gal(b1-4)[Fuc(a1-3)]GlcNAc(b1-6)[Neu5Ac(a2-3)Gal(b1-3)]GalNAc
# Method in brief: as §1
# [22] = biological target: Neu5Ac(a2-3)Gal(b1-4)[Fuc(a1-3)]GlcNAc6S
# Method in brief: as §1
# [23] = biological target: Neu5Ac(a2-3)Gal6S(b1-4)GlcNAc
# Method in brief: as §1
binder,measurement,setting,value
"Gal 8 (Mus musculus), Q9JL15 (protein) MGGSHHHHHHGMASMLSLNNLQNIIYNPIIPYVGTITEQLKPGSLIVIRGHVPKDSERFQVDFQLGNSLKPRADVAFHFNPRFKRSSCIVCNTLTQEKWGWEEITYDMPFRKEKSFEIVFMVLKNKFQVAVNGRHVLLYAHRISPEQIDTVGIYGKVNIHSIGFRFSSASALPHTLGDLQSMETSALGLTQINRENIQKPGKLQLSLPFEARLNASMGPGRTVVIKGEVNTNARSFNVDLVAGKTRDIALHLNPRLNVKAFVRNSFLQDAWGEEERNITCFPFSSGMYFEMIIYCDVREFKVAINGVHSLEYKHRFKDLSSIDTLSVDGDIRLLDVRSW",glycan array binding signal (z-score),[1],0.099
same,glycan array binding signal (z-score),[2],0.194
same,glycan array binding signal (z-score),[3],-0.088
same,glycan array binding signal (z-score),[4],-0.16
same,glycan array binding signal (z-score),[5],0.882
same,glycan array binding signal (z-score),[6],0.264
same,glycan array binding signal (z-score),[7],-0.215
same,glycan array binding signal (z-score),[8],-0.525
same,glycan array binding signal (z-score),[9],-0.507
same,glycan array binding signal (z-score),[10],-0.509
same,glycan array binding signal (z-score),[11],-0.33
same,glycan array binding signal (z-score),[12],-0.254
same,glycan array binding signal (z-score),[13],-0.146
same,glycan array binding signal (z-score),[14],-0.543
same,glycan array binding signal (z-score),[15],-0.542
same,glycan array binding signal (z-score),[16],-0.548
same,glycan array binding signal (z-score),[17],-0.53
same,glycan array binding signal (z-score),[18],-0.553
same,glycan array binding signal (z-score),[19],-0.485
same,glycan array binding signal (z-score),[20],-0.499
same,glycan array binding signal (z-score),[21],0.737
same,glycan array binding signal (z-score),[22],-0.52
same,glycan array binding signal (z-score),[23],-0.549
